According to patent publication US20240376128A1, “N-CYCLOPROPYLPYRIDO [4, 3-D] PYRIMIDIN-4-AMINE DERIVATIVES AND USES THEREOF” (Jacobio Pharmaceuticals Co., Ltd., priority 2021, published 2024):

Legend:
[1] = biological target: T1, K-Ras G13D (Homo sapiens, UniProt P01116, G13D); assay: Nucleotide exchange assay (GDP form K-Ras, no SOS1 added), TR-FRET; conditions: read-out: Biochemical assays, IC50, K-Ras G13D GDP
Method: (§1) The parameters were F486: Excitation 340 nm, Emission 486 nm, Lag time 100 pas, Integration time 200 pas; F515: Excitation 340 nm, Emission 515 nm, Lag time 100 pas, Integration time 200 pas. TR-FRET ratios for each individual wells were calculated by equation: TR-FRET ratio=(Signal F515/Signal F486)*10000.

[2] = biological target: T2, K-Ras G12A (Homo sapiens, UniProt P01116, G12A); assay: SOS1 catalyzed nucleotide exchange assay (GDP form K-Ras), TR-FRET; conditions: read-out: Biochemical assays, IC50, K-Ras G12A GDP
Method: as §1

[3] = biological target: T3, K-Ras G12C (Homo sapiens, UniProt P01116, G12C); assay: as above; conditions: read-out: Biochemical assays, IC50, K-Ras G12C GDP
Method: as §1

[4] = biological target: T4, K-Ras G12R (Homo sapiens, UniProt P01116, G12R); assay: as above; conditions: read-out: Biochemical assays, IC50, K-Ras G12R GDP
Method: as §1

[5] = biological target: T5, K-Ras G12V (Homo sapiens, UniProt P01116, G12V); assay: as above; conditions: read-out: Biochemical assays, IC50, K-Ras G12V GDP
Method: as §1

[6] = biological target: T6, K-Ras Q61H (Homo sapiens, UniProt P01116, Q61H); assay: as above; conditions: read-out: Biochemical assays, IC50, K-Ras Q61H GDP
Method: as §1

[7] = biological target: T7, K-Ras WT (Homo sapiens, UniProt P01116); assay: as above; conditions: read-out: Biochemical assays, IC50, K-Ras WT GDP
Method: as §1

[8] = biological target: T2, K-Ras G12A; assay: GTP-K-Ras (GppNp-K-Ras) and cRAF interaction assay, HTRF; conditions: read-out: Biochemical assays, IC50, K-Ras G12A GppNp
Source text: (§2) GppNp is an analog of GTP.

[9] = biological target: T3, K-Ras G12C; assay: as above; conditions: read-out: Biochemical assays, IC50, K-Ras G12C GppNp
Source text: as §2

[10] = biological target: K-Ras G12D (Homo sapiens, UniProt P01116, G12D); assay: as above; conditions: read-out: Biochemical assays, IC50, K-Ras G12D GppNp
Source text: as §2

[11] = biological target: T4, K-Ras G12R; assay: as above; conditions: read-out: Biochemical assays, IC50, K-Ras G12R GppNp
Source text: as §2

[12] = biological target: T5, K-Ras G12V; assay: as above; conditions: read-out: Biochemical assays, IC50, K-Ras G12V GppNp
Source text: as §2

[13] = biological target: T1, K-Ras G13D; assay: as above; conditions: read-out: Biochemical assays, IC50, K-Ras G13D GppNp
Source text: as §2

[14] = biological target: T6, K-Ras Q61H; assay: as above; conditions: read-out: Biochemical assays, IC50, K-Ras Q61H GppNp
Source text: as §2

[15] = biological target: T7, K-Ras WT; assay: as above; conditions: read-out: Biochemical assays, IC50, K-Ras WT GppNp
Source text: as §2

[16] = test system: SW620 cell line (K-Ras G12V); assay: Phospho-ERK1/2(THR202/TYR204) HTRF assay; format: cell-based; conditions: Homo sapiens, SW-620; SW620 cells (K-Ras G12V), 2 hours incubation; read-out: p-ERK, IC50(nM) SW620
[17] = test system: NCI-H358 cell line (K-Ras G12C); assay: Phospho-ERK1/2(THR202/TYR204) HTRF assay; format: cell-based; conditions: Homo sapiens; NCI-H358 cells (K-Ras G12C), 2 hours incubation; read-out: p-ERK, IC50(nM) NCI-H358
[18] = test system: RERF-LC-Ad1 cell line (K-Ras G12A); assay: Phospho-ERK1/2(THR202/TYR204) HTRF assay; format: cell-based; conditions: RERF-LC-Ad1 cells (K-Ras G12A), 2 hours incubation; read-out: p-ERK, IC50(nM) RERF-LC-Ad1
[19] = test system: TCC-PAN2 cell line (K-Ras G12R); assay: Phospho-ERK1/2(THR202/TYR204) HTRF assay; format: cell-based; conditions: TCC-PAN2 cells (K-Ras G12R), 2 hours incubation; read-out: p-ERK, IC50(nM) TCC-PAN2
[20] = test system: NCI-H460 cell line (K-Ras Q61H); assay: Phospho-ERK1/2(THR202/TYR204) HTRF assay; format: cell-based; conditions: Homo sapiens; NCI-H460 cells (K-Ras Q61H), 2 hours incubation; read-out: p-ERK, IC50(nM) NCI-H460
[21] = test system: MKN-1 cell line (K-Ras WT amplification); assay: Phospho-ERK1/2(THR202/TYR204) HTRF assay; format: cell-based; conditions: Homo sapiens; MKN-1 cells (K-Ras WT amplification), 2 hours incubation; read-out: p-ERK, IC50(nM) MKN-1
[22] = test system: K-Ras mutant and K-Ras WT cell lines indicated in Table 20; assay: 2D cell growth inhibition assay (CellTiter-Glo, 6 days); format: cell-based
Method: Each of cells in culture medium was plated in TC-treated 96-well plates at a density indicated in Table 20 and incubated in a cell incubator overnight.

[23] = test system: K-Ras mutant and K-Ras WT cell lines indicated in Table 20; assay: 3D cell growth inhibition assay (CellTiter-Glo 3D, 6 days); format: cell-based; conditions: 144 h
[24] = 144 h, AGS (K-Ras G12D), absolute IC50, read-out: Cell Growth Inhibition, IC50, AGS
[25] = Homo sapiens, ASPC1, 144 h, AsPC-1 (K-Ras G12D), absolute IC50, read-out: Cell Growth Inhibition, IC50, AsPC-1
[26] = Homo sapiens, SW-620, 144 h, SW620 (K-Ras G12V), absolute IC50, read-out: Cell Growth Inhibition, IC50, SW620
[27] = TCC-PAN2 (K-Ras G12R), absolute IC50, read-out: Cell Growth Inhibition, IC50, TCC-PAN2
[28] = Homo sapiens, MKN-1 (K-Ras WT), absolute IC50, read-out: Cell Growth Inhibition, IC50, MKN-1
[29] = Homo sapiens, NCI-H358 (K-Ras G12C), absolute IC50, read-out: Cell Growth Inhibition, IC50, NCI-H358
[30] = Homo sapiens, NCI-H460 (K-Ras Q61H), absolute IC50, read-out: Cell Growth Inhibition, IC50, NCI-H460

SMILES | IC50 [1] | IC50 [2] | IC50 [3] | IC50 [4] | IC50 [5] | IC50 [6] | IC50 [7] | IC50 [8] | IC50 [9] | IC50 [10] | IC50 [11] | IC50 [12] | IC50 [13] | IC50 [14] | IC50 [15] | IC50 [16] | IC50 [17] | IC50 [19] | IC50 [20] | IC50 [21] | further results
C#Cc1c(F)ccc2cc(O)cc(-c3ncc4c(N(C)C5CC5)nc(OC[C@@]56CCCN5C[C@H](F)C6)nc4c3F)c12 [Compound 1, 4-(4-(cyclopropyl(methyl)amino)-8-fluoro-2-(((2R,7aS)-2-fluorotetrahydro-1H-pyrrolizin-7a(5H)-yl)methoxy)pyrido[4,3-d]pyrimidin-7-yl)-5-ethynyl-6-fluoronaphthalen-2-ol] | 15.2 nM | 5.6 nM | 4.21 nM | 2.93 nM | 0.683 nM | 3.93 nM | 3.23 nM | 421 nM | 426 nM | 50.2 nM | 86.4 nM | 204 nM | 10.1 nM | 144 nM | 108 nM | 9.18 nM | 8.93 nM | 760 nM | 63.6 nM | 10.6 nM | IC50 [18]: 8.32 nM; IC50 [22, 24]: 38.8 nM; IC50 [22, 25]: 751 nM; IC50 [22, 26]: 19.5 nM; IC50 [23, 27]: > 1000 nM; IC50 [23, 28]: 61 nM; IC50 [23, 29]: 227 nM; IC50 [23, 30]: ~1000 nM
C#Cc1c(F)ccc2cc(O)cc(-c3ncc4c(N(CC)[C@@H]5C[C@H]5F)nc(OC[C@@]56CCCN5C[C@H](F)C6)nc4c3F)c12.O=C(O)C(F)(F)F (mixture of isomers) [Compound 6, 4-(4-(ethyl(trans-2-fluorocyclopropyl)amino)-8-fluoro-2-(((2R,7aS)-2-fluorotetrahydro-1H-pyrrolizin-7a(5H)-yl)methoxy)pyrido[4,3-d]pyrimidin-7-yl)-5-ethynyl-6-fluoronaphthalen-2-ol 2,2,2-trifluoroacetic acid] | 4.38 nM | 6.09 nM | 3.03 nM | 3.11 nM | 4.43 nM | 2.87 nM | 4.24 nM | > 1000 nM | 564 nM | 118 nM | 101 nM | 167 nM | 8.55 nM | 388 nM | 218 nM | 5.96 nM | 75.1 nM | 278 nM | 51.2 nM | 3.82 nM | IC50 [18]: 3.7 nM; IC50 [22, 24]: 17.7 nM; IC50 [22, 25]: 53.5 nM; IC50 [22, 26]: 21.2 nM; IC50 [23, 27]: > 1000 nM; IC50 [23, 28]: 52.3 nM; IC50 [23, 29]: 14.5 nM; IC50 [23, 30]: 382 nM
C=Cc1c(F)ccc2cc(O)cc(-c3ncc4c(N(C)[C@@H]5C[C@H]5F)nc(OC[C@@]56CCCN5C[C@H](F)C6)nc4c3F)c12.O=C(O)C(F)(F)F (mixture of isomers) [Compound 16, 6-fluoro-4-(8-fluoro-4-((trans-2-fluorocyclopropyl)(methyl)amino)-2-(((2R,7aS)-2-fluorotetrahydro-1H-pyrrolizin-7a(5H)-yl)methoxy)pyrido[4,3-d]pyrimidin-7-yl)-5-vinylnaphthalen-2-ol 2,2,2-trifluoroacetic acid] | 6.97 nM | 10.7 nM | 5.21 nM | 5.74 nM | 3.81 nM | 4.51 nM | 7.4 nM | > 1000 nM | 731 nM | 90.5 nM | 501 nM | 441 nM | 10.4 nM | 436 nM | 400 nM | 2.28 nM | 60.1 nM | ~1000 nM | 82.7 nM | 13.8 nM | IC50 [22, 24]: 22 nM; IC50 [22, 25]: 142 nM; IC50 [22, 26]: 14.4 nM; IC50 [23, 27]: > 1000 nM; IC50 [23, 28]: 75.3 nM; IC50 [23, 29]: 187 nM; IC50 [23, 30]: 402 nM
C#Cc1c(F)ccc2cc(O)cc(-c3ncc4c(N(C)[C@H]5C[C@@H]5F)nc(OC[C@@]56CCCN5C[C@H](F)C6)nc4c3F)c12 [Compound 3A, 5-ethynyl-6-fluoro-4-(8-fluoro-4-(((1S,2S)-2-fluorocyclopropyl)(methyl)amino)-2-(((2R,7aS)-2-fluorotetrahydro-1H-pyrrolizin-7a(5H)-yl)methoxy)pyrido[4,3-d]pyrimidin-7-yl)naphthalen-2-ol] | 0.939 nM | 0.999 nM | 0.526 nM | 1.04 nM | 1.97 nM | 0.729 nM | 0.707 nM | 149 nM | 122 nM | 22.2 nM | 42.9 nM | 54.8 nM | 2.77 nM | 70 nM | 77.9 nM | 0.969 nM | 3.49 nM | 201 nM | 10.3 nM | 1.93 nM | IC50 [18]: 4.05 nM; IC50 [22, 24]: 4.99 nM; IC50 [22, 25]: 61.3 nM; IC50 [22, 26]: 2.28 nM; IC50 [23, 27]: 602 nM; IC50 [23, 28]: 15.4 nM; IC50 [23, 29]: 46.6 nM; IC50 [23, 30]: 141 nM
